Read counts are not given, so values of variants with three or more changes are uncertain.
B1: LINE1-mini (parent)
chain: GGCAGAGCUCAACACAGCGUGGCAAAGUGGCUGUGGCUAGACUGCC

Variants of: B1
Experiment: self-cleavage, relative activity (ratio to wild type); higher = more cleavage; in vitro, sequencing; the parent is a self-cleaving ribozyme

Variant	self-cleavage
A6C A12G C18A U20A G21A A25C	0.07
A6C A25U C46U	0.9
G5U G40U C46A	0.04
G5U G40U C45G	0.02
A6C A11U G29C U38C	0.04
A6C C8A A14G A41G C42A	0.02
A6C A14U G19U A24G G33U G36C	0.02
G5U U38A A39C	0.07
A6C A25C C45U C46G	0.19
G5U U20G G27U U28C	0.12
G5U U9A U32A	0.08
A6C A26G U28G C37U	0.02
A6C A11G C13G G19A C37A U38A G40A G44U	0.04
A6C A14G G17U G19U U32A	0.02
A6C A11G C42A	0.01
G5U U28G U38A G40C	0.01
A6C C8G C18U G29A U38C C46G	0.01
A6C C8A A26U C31G	0.12
A6C C8G A11U A16G G17A U20C C46G	0.02
G5U U20C U43G G44U	0.13
G5U U9C G29C	0.05
G5U U9G G27A G33A C46A	0.07
G5U G36A U38A A39C A41G	0.04
A6C A12U G19U A25U G29A G30U G36C C42A	0.05

Variant	self-cleavage
A6C A16U C46A	0.01
A6C A39G U43C	0.02
G5U U20C U32C	0.05
A6C A41C G44A	0.03
A6C A14C U34C G40A	0.06
G5U U20A C42G	0.04
A6C C8A G29A G36U	0.11
A6C A24U A25C	0.23
G5U U9G C10G G19C	0.01
G5U U9G G35C U38C G40U	0.03
A6C A14G G29C	0.11
G5U U32A A39G	0.02
A6C A12G U20G	0.02
A6C A11U C13A C18A U20A A41G	0.02
G5U U20A G35U	0.04
G5U U9C G21U A26G A41C	0.01
A6C A16G G21C C31U C37A	0.02
G5U G40C A41C	0
G5U G36U U43A	0.04
G5U U9G A11U G17A	0.01
G5U U9A C23U	0.04
G5U G36A G40C	0.03
G5U U20C C31A	0.02
A6C A11C A14G G29U G35U	0.01

Variant	self-cleavage
G5U U28A U32C	0.04
G5U U9C G22A C23A G36C C37G	0.01
G5U U32G G40U G44A	0.09
A6C A16C U20C C23U C37U C45A	0.05
G5U U9C A14C	0.01
G5U U20A G30A G44C	0.07
A6C C8A C31G A41C	0.13
A6C C8G C18A G33U	0.01
G5U U9A C13U A16C	0.06
A6C C8G A14C C37A	0.1
G5U G36A C37A	0.23
G5U U38G C46A	0.04
A6C A26G U28G	0.08
A6C A24U G33C U34A G36A C46G	0.03
G5U G35C G40A	0
G5U U28G G33U G36U U43G	0
A6C A14G G44U	0.04
G5U U9G C10A G17A G27A C46G	0.04
A6C A26U G30A	0.17
A6C A11U C13G U20A	0.04
A6C A11U G35U	0.06
A6C A12U G29C G36C C42G	0
A6C A11U C13A C18A G29A	0.02
A6C A11U A14U A39C	0.03

Variant	self-cleavage
G5U U32G U43A	0.03
A6C A24U G27C U28G	0.09
G5U U32C C46A	0.05
A6C A11U A12C	0.04
G5U U9A U28C G33U	0.2
G5U U32G G35C A41U	0.05
A6C A11G C13A A16C G29C C31U	0.03
G5U U28C C37A	0.07
G5U U28A G44A	0.03
G5U U32C U43G	0.04
G5U U9G G19C A41C C42G	0.01
A6C A11C G40U	0.04
A6C A12C G36U	0.07
A6C A16U G40A C46G	0.02
A6C A14C A24C C42G	0.02
A6C A14C C37G G44U	0.16
G5U U32A G36U C37G	0.03
G5U U20G G35U G40U	0.05
G5U U9A G21U G40U	0.05
G5U U9G G36A	0.35
G5U U9G G21U	0.03
G5U U20G G22A C46U	0.09
A6C C8U C10A	0.02
G5U U9A G17C U34G	0

Variant	self-cleavage
A6C A11C C37G	0.01
A6C A24G G30U	0.65
G5U G40A C45A	0.01
A6C A16U C23G	0.11
G5U U20G G29A C31A	0.03
A6C A12G G35A	0.03
G5U U9A C18U	0.07
G5U U9C C10A	0.04
G5U U9C C18G G27A	0.07
A6C A11U C31G	0.02
G5U U32A G35C	0.06
A6C A11C C13U	0.05
A6C A12G A25U A26C G27C	0.01
A6C A12C C15U G36U C42A	0.01
A6C A25C C37U	0.02
G5U U28A C37A	0.04
G5U U34C G40C	0.04
A6C A11U A16C G33U	0.01
A6C A25C U32A A41C	0.02
G5U U9A G29A G33C	0.11
A6C A12C C18G G33C G35A	0
G5U U20G G36C C37G G44A	0.02
A6C C8U A11U C13A	0.01
A6C A14U C46U	0.3

Variant	self-cleavage
A6C A12U C18U C23U C42U	0.09
A6C A14G U28A U32G	0.22
A6C A16U G29A G36A	0.25
G5U U9G C18G G22A A24C A41U	0.02
A6C C8G G33A U38A	0.02
G5U G36C G44U	0.02
A6C A16C G17U G27C	0.04
A6C C8G A11C A14G G29U U43G	0
A6C A24U C37A	0.03
A6C C8A A12C A41G C45U	0.06
A6C C8G G30C U43C	0.02
A6C A16C A26G G44A	0.03
A6C A16U G27C	0.21
A6C A24G C46A	0.1
G5U U28A G29A	0.07
G5U U9C C18G	0.01
A6C A14C G17A U28C G30U G36U	0.02
A6C A12G G19C	0.07
A6C A24U G40C G44A	0
A6C A11U G17A C37U G40U	0.05
G5U U32C G40U	0.06
G5U U9G A14C G27U C31A G35A	0.01
A6C A24C C45U	0.08
A6C A25U A26C C37U	0.07

Variant	self-cleavage
G5U U9C C10A C31G	0.01
G5U U20C G33A	0.02
G5U U20C G33U	0.05
A6C A12U G22U A25G G27C A41C	0.01
A6C A14C A26G C42U	0.02
A6C A11U C13A	0.03
G5U U9A A14C G33U G35C	0.02
G5U U28C C31U U43A G44A	0.03
A6C C8A C15A A41G	0.17
G5U U20A G22U U32C G36U	0.03
G5U G36A C45G	0.08
A6C A14C G19U C31A	0.02
A6C A16U C18A G22C G29U U34A	0.02
A6C A14C G17A A41G	0.04
A6C A11U C13G G21C C37A	0.02
G5U U9G G44U	0.02
A6C A39U C46G	0.39
G5U U9A C31U C46U	0.02
A6C A12C A25G U32A G35A U38C	0.01
A6C A26G G35A	0.11
G5U U34G G44U	0.01
A6C A12C G27C U28G U34C A39U	0.02
A6C A14U U32C	0.07
